Results published in paper PMC5590943, “Pharmacological characterisation of S 47445, a novel positive allosteric modulator of AMPA receptors” (PLoS ONE, 2017).
Read-outs that look alike come from different tables or passages of the source.

Tested on: Na+ channel (site 2)

O=C1c2cc3nnn(CCc4cccc(F)c4)c(=O)c3cc2OCN1C1CC1 [S 47445, 8-cyclopropyl-3-[2-(3-fluorophenyl)ethyl]-7,8-dihydro-3H-[1,3]oxazino[6,5-g][1,2,3]benzotriazine-4,9-dione]
% Inhibition of control specific binding (S 47445 1.0E-05 M): 41% | % Inhibition of control specific binding (S 47445 1.0E-07 M): 2%
